# Measurements reported in PubChem BioAssay AID504845 (National Center for Advancing Translational Sciences (NCATS), 2011).
# Out of some 390,000 compounds screened, about 150 (0.038%) were called active. Inconclusive results, whose numbers are uncertain, are shown with a selection of clear calls. The call rests on the fitted dose curve; in most records, active means well fitted inhibition curve with a large enough effect; inconclusive means small, poorly fitted or top-dose-only effect; inactive means no such curve, though single readings can be large or run the other way. Potencies beside an inconclusive call are fits to weak or partial responses and may not hold up.
# Biological target: Regulator of G-protein signaling 4 (Homo sapiens) (UniProt P49798)
# Assay: Inhibitors of Regulator of G Protein Signaling (RGS) 4: qHTS; further: nearly all actives have a fitted effect of over 75% in size
# Details: Transcreener GDP fluorescence polarization, RGS4-accelerated GTP hydrolysis; series mostly up to 114 µM; activity change, negative = inhibition: at the top concentration
# Outline: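 MLSMR compounds (23 nl, pin-transferred) preincubated 10 min at room temperature with a 500nM (2x) first reagent, then RGS4 at 900nM (2x) plus Transcreener GDP mix added; fluorescence polarization (620/688 nm) read before and after 90 min at 30 °C.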
# On the % scale 0 is the no-effect control and ±100 the full control effect; potency means the concentration at half of the fitted maximal effect; tags describe the fitted curve by direction and shape.
# Chain of UniProt P49798 (P49798 whole entry, looked up): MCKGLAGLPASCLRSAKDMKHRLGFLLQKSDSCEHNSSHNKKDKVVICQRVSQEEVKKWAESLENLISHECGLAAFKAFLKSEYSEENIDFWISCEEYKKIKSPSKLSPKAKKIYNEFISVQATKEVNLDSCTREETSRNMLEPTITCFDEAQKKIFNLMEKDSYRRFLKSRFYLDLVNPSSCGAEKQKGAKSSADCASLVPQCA
Compound,Potency,"activity change, negative = inhibition"
CCOc1ccc(OC(=O)c2cn(-c3ccc(C)cc3)c(=O)c3ccccc23)cc1,"inconclusive: 100 µM [inhibitor, single point]",
Cc1coc2cc3oc(=O)c(CCC(=O)NCc4ccc(Cl)cc4)c(C)c3cc12,,inactive: 3.96%
Cc1cccc(S(=O)(=O)N2CCN(c3nc(-c4cccs4)nc4ccccc34)CC2)c1,,inactive: -7.73%
Cc1ccc(NC(=O)CN2C(=O)S/C(=C/c3ccc(O)c([N+](=O)[O-])c3)C2=O)cc1C,"inconclusive: 28.2 µM [inhibitor, full curve, poor fit]",
CC1=NN(C(=O)CSCc2ccccc2)C(O)(c2ccc(F)cc2)C1 (stereo unspecified),,inactive: 17.5%
Cc1[nH]c(C)c(C(=O)/C=C/c2ccc([N+](=O)[O-])cc2)c1C,"inconclusive: 50.1 µM [inhibitor, partial curve, poor fit]",
CCC1c2ccc(C)n2CCN1C(=O)Nc1ccc(F)cc1 (stereo unspecified),"inconclusive: 89.1 µM [inhibitor, single point]",
O=C(COc1ccccc1)Nc1cc(NC(=O)COc2ccccc2)cc(C(=O)O)c1,"inconclusive: 50.1 µM [inhibitor, partial curve, poor fit]",
CN(Cc1ccco1)C(=O)CN1C(=O)NC2(CCCC2)C1=O,"inconclusive: 89.1 µM [inhibitor, single point]",
CN(C1CCCCC1)S(=O)(=O)Cc1ccccc1,"inconclusive: 79.4 µM [inhibitor, partial curve, poor fit]",
COc1ccc(N2CCN(C(=O)c3ccc(N(C)S(=O)(=O)c4ccc(OC)cc4)cc3)CC2)cc1,"inconclusive: 35.5 µM [inhibitor, partial curve, poor fit]",
O=C(NCc1ccco1)c1cc2c(s1)CCCCC2,,inactive: -19.2%
CN(c1cccc(Cl)c1)S(=O)(=O)c1cccc(C(=O)Nc2nc3ccccc3[nH]2)c1,,inactive: -29.3%
O=C(O)c1cc(-c2ccc(/C=N/Nc3ccc(Cl)cc3)o2)ccc1Cl,"inconclusive: 50.1 µM [inhibitor, partial curve, poor fit]",
N#C/C(=C\c1ccc(-c2cc(Cl)ccc2Cl)o1)C(=O)Nc1cccc2ncccc12,active: 2.99 µM,
CCc1cc2c(=O)n(Cc3ccco3)c(SCc3c(C)noc3C)nc2s1,"inconclusive: 79.4 µM [inhibitor, partial curve, poor fit]",
CC(C)(C)NC(=O)NC(=O)CN1CCN(c2ccc(O)cc2)CC1,"inconclusive: 89.1 µM [inhibitor, single point]",
NC(=O)c1ccccc1N,"inconclusive: 112 µM [inhibitor, partial curve, poor fit]",
COc1cc2c(cc1NC(=O)CSc1nnc(Cc3cccs3)n1Cc1ccco1)oc1ccccc12,"inconclusive: 44.7 µM [inhibitor, partial curve, poor fit]",
COc1ccc2c(c1)-c1nc(/N=C/c3c(O)ccc4ccccc34)sc1CC2,"inconclusive: 89.1 µM [inhibitor, partial curve, poor fit]",
CN(C)CC(C(=O)c1ccccc1)c1ccccc1 (stereo unspecified),"inconclusive: 56.2 µM [inhibitor, partial curve, poor fit]",

Compound,Potency,"activity change, negative = inhibition"
COc1cc(/C=C/C(=O)c2cccc([N+](=O)[O-])c2)cc(OC)c1OC,"inconclusive: 35.5 µM [inhibitor, partial curve, poor fit]",
Cc1ccc(C(C)C)cc1OCC(=O)N/N=C/c1ccc2c(c1)OCCO2,,inactive: -43.8%
Cn1nnnc1Sc1ncnc2scc(-c3ccc(F)cc3)c12,"inconclusive: 70.8 µM [inhibitor, partial curve, poor fit]",
COc1cc(Cl)cc(C2NC(=S)NC(c3ccccc3)=C2C(C)=O)c1OCC(=O)O (stereo unspecified),"inconclusive: 89.1 µM [inhibitor, partial curve, poor fit]",
Nc1ccc(Sc2nc3ccccc3[nH]2)cc1,,inactive: 15.3%
Cc1ccc(Nc2nc(-c3sc(NC(=O)c4ccccc4)nc3C)cs2)cc1,"inconclusive: 17.8 µM [inhibitor, full curve, poor fit]",
CC(=O)CCc1oc2ccc(NC(C)=O)cc2c1-c1ccc(C)o1,"inconclusive: 50.1 µM [inhibitor, partial curve, poor fit]",
CCOc1ccc(S(=O)(=O)Nc2cc(SCC(=O)O)c(O)c3ccccc23)cc1,"inconclusive: 25.1 µM [inhibitor, full curve, poor fit]",
O=C(Nc1ccccc1)c1nnsc1S(=O)(=O)c1ccc(Cl)cc1,"inconclusive: 31.6 µM [inhibitor, full curve, poor fit]",
O=C(COc1ccccc1)N/N=C/c1sc(=O)n(Cc2cccc(C(=O)O)c2)c1Cl,,inactive: -25.8%
Cc1ccc(Cl)cc1N1CCN(CC(O)COC(C)C)CC1 (stereo unspecified),,inactive: 21.2%
Cc1ccc(C(=O)O)cc1-c1ccc(/C=C2/NC(=O)N(c3ccccc3)C2=O)o1,"inconclusive: 31.6 µM [inhibitor, full curve, poor fit]",
Cc1ccc(-c2ccc(/C=N/NC(=O)Cc3nnc(N)s3)o2)cc1Cl,,inactive: -20.7%
S=C(NCCc1ccc(Cl)cc1)Nc1ccc(Cl)cc1Cl,"inconclusive: 39.8 µM [inhibitor, partial curve, poor fit]",
CCc1n[nH]c(=S)n1/N=C/c1ccc(N(CC)CC)cc1,"inconclusive: 100 µM [inhibitor, partial curve, poor fit]",
N#C/C(=C\c1cn(CCOc2ccccc2)c2ccccc12)C(=O)NCc1cccs1,,inactive: -9.83%
Nc1nnc(CC(=O)N/N=C/c2cc([N+](=O)[O-])cc(Br)c2O)s1,"inconclusive: 100 µM [inhibitor, partial curve, poor fit]",
CCOc1cc(/C=C2\C(=O)ON=C2c2ccccc2)ccc1OC,"inconclusive: 20 µM [inhibitor, full curve, poor fit]",
CCS(=O)(=O)N1CCN(CC(=O)NC2CCCCC2)CC1,"inconclusive: 50.1 µM [inhibitor, partial curve, poor fit]",
Cc1ccc(C(=O)/C=C/C(=O)c2ccc(C)cc2)cc1,,inactive: -116%
